Measurements as given in PubChem BioAssay AID686978 (National Center for Advancing Translational Sciences (NCATS), 2013).
Screen size: about 420,000 compounds; about 64,000 (15%) were called active. Inconclusive means that the source gave no clear call. Such entries were picked first, then a sample of the others. Calls follow the shape of the dose curve; as a rule, active = well fitted inhibition curve with a large enough effect; inconclusive = small, poorly fitted or top-dose-only effect; inactive = flat fitted curve, though single readings scatter. Potencies of inconclusive entries are left out as doubtful fits.

Assay: qHTS for Inhibitors of human tyrosyl-DNA phosphodiesterase 1 (TDP1): qHTS in cells in absence of CPT; also: nearly all actives have a fitted effect of over 55% in size
Settings: DT40 Tdp1-/- hTDP1 cells, no CPT, ATP luminescence, 48 h; activity change, negative = growth inhibition: at 46.2 µM (top of the series) unless noted
Method in brief: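 Chicken DT40 Tdp1-/- cells stably complemented with human TDP1 were seeded at 400 cells/well with DMSO in place of 20 nM camptothecin. After compound pinning, cells grew at least 48 hr at 37 °C; viability read by CellTiter-Glo luminescence.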
% is scaled to controls: 0 for no effect and ±100 for the full control effect; potency is read from the fitted curve at half-maximal effect; tags tell the direction and shape of the fitted curve.

| Structure (SMILES) | Potency | activity change, negative = growth inhibition |
| --- | --- | --- |
| CCc1ccc(NC(=O)N(Cc2c[nH]c3ccccc23)C2CCCCC2)cc1 | active: 6.51 µM | – |
| Cc1ccc(C(=O)NCC(c2ccco2)N2CCCCC2)s1 (stereo not given) | inconclusive [inhibitor, single point] | – |
| O=[N+]([O-])c1cc(Br)ccc1NS(=O)(=O)c1ccccc1 | inconclusive [inhibitor, single point] | – |
| Clc1cccc(Cc2c(C3CCCCC3)nc3ccc(Br)cn23)c1 | inconclusive [inhibitor, partial curve] | – |
| O=C(NCc1ccccc1)C(c1ccc(F)cc1)N(Cc1cccs1)C(=O)c1cnccn1 (stereo not given) | inconclusive [inhibitor, partial curve] | – |
| O=C(CCCc1nc(-c2ccccc2)no1)NC1CCCC1 | – | inconclusive: -36% [inhibitor] |
| Cc1ccc(NS(=O)(=O)c2cc(-c3cc(C)no3)ccc2C)c(Cl)c1 | inconclusive [inhibitor, single point] | – |
| CCOc1ccc2nc(N3CCCC(C(=O)Nc4cc(C)ccc4C)C3)sc2c1 (stereo not given) | active: 18.4 µM | – |
| Cc1cc(C(=O)NCC(=O)OCC(=O)N(C)C2CCCCC2)ccc1[N+](=O)[O-] | inconclusive [inhibitor, full curve, poor fit] | – |
| Cn1nc(C(=O)OCC(=O)NCc2ccc(Cl)cc2Cl)c2ccccc2c1=O | – | inactive: -17.6% |
| N#Cc1ccccc1S(=O)(=O)N1CCN(Cc2cc3c(cc2Br)OCCO3)CC1 | inconclusive [inhibitor, single point] | – |
| Cn1nc(CC(=O)NCc2ccc(F)cc2)c2ccccc2c1=O | active: 18.4 µM | – |
| O=C(NCc1ccccc1)c1cc(C2CCCCN2S(=O)(=O)c2ccccc2)on1 (stereo not given) | active: 25.9 µM | – |
| CCc1ccc(/C=C2\SC(N3CCOCC3)=NC2=O)cc1 | inconclusive [inhibitor, single point] | – |
| Cc1ccc(C)c(NC(=O)CN(C)C(=O)c2ccc(-c3ccc(Cl)cc3)o2)c1 | inconclusive [inhibitor, single point] | – |
| O=C(C[C@@H]1C/C=C\C[C@H](NC(=O)OCC2c3ccccc3-c3ccccc32)C(=O)OC[C@H]2CCCN2C1=O)N[C@@H](CO)Cc1ccccc1 | active: 4.61 µM | – |
| CCOC(=O)C1CCN(C(=O)c2ccc3nc(-c4ccc(OC)cc4)c(-c4ccc(OC)cc4)nc3c2)CC1 | inconclusive [inhibitor, single point] | – |
| COC(=O)CC1C(=O)NCCN1C(=O)c1sc2ccccc2c1Cl (stereo not given) | – | inactive: 0.505% |
| CC(=O)Nc1ccc(NC(=O)c2cc(C3CC3)nc3c2cnn3C(C)C)cc1 | inconclusive [inhibitor, partial curve, poor fit] | – |
| COc1nc(Nc2ccc([N+](=O)[O-])cc2)nc(NC2CCCCC2)n1 | inconclusive [inhibitor, single point] | – |
| O=C(COC(=O)c1ccc(O)cc1O)NC12CC3CC(CC(C3)C1)C2 | inconclusive [inhibitor, single point] | – |
| O=C(O)CCC(=O)N1CCc2c([nH]c3ccccc23)C1C(F)(F)F (stereo not given) | – | inactive: 12.9% |
| Cc1ccc(-n2c(=O)c3ccc(C(=O)NCc4ccco4)cc3n(Cc3cccc(Cl)c3)c2=O)cc1 | inconclusive [inhibitor, partial curve, poor fit] | – |
| CS(=O)(=O)N(CC(=O)N1CCCC1)c1cccc(Cl)c1Cl | inconclusive [inhibitor, single point] | – |

| Structure (SMILES) | Potency | activity change, negative = growth inhibition |
| --- | --- | --- |
| CN(CC(=O)O/N=C(\N)c1ccc([N+](=O)[O-])cc1)S(=O)(=O)c1ccccc1 | inconclusive [inhibitor, single point] | – |
| CC(C)CN(C(=O)CSc1nnc(-c2cccs2)n1N)c1c(N)n(Cc2ccccc2)c(=O)[nH]c1=O | – | inactive: 8.5% |
| CC(C)c1cnc2c(c1SCc1cccc(C(F)(F)F)c1)c(=O)n(C)c(=O)n2C | active: 23.1 µM | – |
| COc1ccc(NCc2nnc(SCC(=O)Nc3ccccc3)n2C)cc1 | – | inactive: 9.28% |
| CON1C(=O)C(=O)N(OC)C(C)(C)C1(C)C | – | inactive: -9.51% |
| COc1cccc(C2=Nc3cccc4cccc(c34)N2)c1 | inconclusive [inhibitor, single point] | – |
| Cc1sc2ncnc(N3CCC(C(=O)Nc4sc5c(c4C(N)=O)CCC(C)C5)CC3)c2c1C (stereo not given) | inconclusive [inhibitor, partial curve] | – |
| CC(C)CCNC(=O)CSCc1cnn(-c2ccccc2)c1-n1cccc1 | active: 20.6 µM | – |
| CCCCCOc1ccc(NC(=O)C(=O)NCC2CCCN2CC)cc1 (stereo not given) | inconclusive [inhibitor, single point] | – |
| Cc1ccc(NS(=O)(=O)c2cccc(C(=O)NCC3CCCO3)c2)cc1 (stereo not given) | inconclusive [inhibitor, single point] | – |
| Cc1ccc(NC(=O)COC(=O)CCc2nc3ccccc3c(=O)[nH]2)cc1Cl | – | inactive: -4.89% |
| O=C(NCc1ccccc1)c1cccc(COc2cc(Cl)ccc2Cl)c1 | inconclusive [inhibitor, full curve, poor fit] | – |
| C#CCn1cc2c(c1-c1ccccc1)c(=O)n(C)c(=O)n2C | active: 20.6 µM | – |
| Cc1ccc(N2C(N)=C(C#N)C3(C(=O)N(C)c4ccccc43)C3=C2CC(C)(C)CC3=O)cc1Cl (stereo not given) | active: 16.4 µM | – |
| Cc1nc(SCC(=O)NC2CCS(=O)(=O)C2)c(C#N)c(C)c1C (stereo not given) | – | inactive: -9.24% |
| N/C(=N\c1nc2c(c(=O)[nH]1)CCCC2)Nc1ccccc1Sc1ccccc1 | active: 20 µM | – |
| CC(C)(C)N1C(=O)c2ccccc2NC(=O)C1C(=O)NCCc1ccccc1F (stereo not given) | inconclusive [inhibitor, single point] | – |
| NC(=O)c1ccc(NCC2COc3ccccc3O2)c([N+](=O)[O-])c1 (stereo not given) | – | inconclusive: -32.6% [inhibitor] |
| COC(=O)c1ccccc1NC(=O)Cc1noc2ccc(C)cc12 | inconclusive [inhibitor, single point] | – |
| CCOCCCn1c(C)nc2c[n+](CC(=O)c3ccc4ccccc4c3)cc(Br)c21 | active: 2.59 µM | – |
| Nc1c(-c2ccc(Cl)cc2)cnn1-c1cccc(C(F)(F)F)c1 | inconclusive [inhibitor, partial curve] | – |
| OC1CCCN(Cc2cn(Cc3ccccc3)nc2-c2cc3ccccc3o2)C1 (stereo not given) | active: 18.4 µM | – |
| O=C(Nc1ccc([N+](=O)[O-])cn1)c1cc(-c2cccc(Cl)c2)nc2ccccc12 | inconclusive [inhibitor, partial curve, poor fit] | – |
| CCCCNC(=O)[C@@H]1CC=C[C@@H]2CCN(C3CCCCC3)C(=O)[C@@H]21 | inconclusive [inhibitor, partial curve] | – |

| Structure (SMILES) | Potency | activity change, negative = growth inhibition |
| --- | --- | --- |
| COc1ccc(C(C)NC(=O)C2CCN(CCOc3ccc(Cl)cc3Cl)CC2)cc1OC (stereo not given) | active: 23.1 µM | – |
| Cc1ccc2[nH]c(C(=O)N/N=C/c3ccc([N+](=O)[O-])cc3)c(C)c2c1 | active: 4.11 µM | – |
| CC1CN(C(=O)CCNC(=O)c2ccc(Cl)cc2)CC(C)O1 (stereo not given) | – | inactive: 21.4% |
| O=C(COc1ccc(C(=S)N2CCCC2)cc1)Nc1ccc(F)cc1 | inconclusive [inhibitor, single point] | – |
| O=C(Nc1ccc(Cl)c(Cl)c1)N1CCC(c2ccccc2)C1 (stereo not given) | active: 20.6 µM | – |
| Cc1cccn2c(=O)cc(COc3cccc(NC(=O)c4ccccc4F)c3)nc12 | inconclusive [inhibitor, single point] | – |
| Cc1nc(Nc2ccccc2)sc1C(=O)Nc1ccccc1 | inconclusive [inhibitor, single point] | – |
| Cc1cccc(NC(=S)NC(=O)/C=C/c2ccco2)c1 | inconclusive [inhibitor, full curve, poor fit] | – |
| COc1cccc(CNCc2ccccc2Br)c1OC | inconclusive [inhibitor, single point] | – |
| CCn1cc(C(=O)NCCCN2CCCCCC2)c(=O)c2cc(S(=O)(=O)N3CCc4ccccc4C3)ccc21 | inconclusive [inhibitor, single point] | – |
| O=C(O)c1ccn(CSc2cc(Cl)ccc2Cl)n1 | inconclusive [inhibitor, single point] | – |
| CC(=O)Nc1ccc(-c2csc(N/N=C\c3ccncc3)n2)cc1 | inconclusive [inhibitor, partial curve] | – |
| CN1CC(=O)NC1=NC(=O)C12CC3CC(CC(C3)C1)C2 | active: 18.4 µM | – |
| O=C(NCCc1ccccn1)C1CC12CCN(C(=O)c1c(F)cccc1Cl)CC2 (stereo not given) | – | inactive: -5.58% |
| COc1ccc2cc(CCNC(=O)c3cc4ccccc4o3)c(=O)[nH]c2c1 | inconclusive [inhibitor, partial curve, poor fit] | – |
| CC1CCN(Cc2cc(=O)oc3cc(O)c(Cl)cc23)CC1 | inconclusive [inhibitor, single point] | – |
| COc1ccc(CNc2ncnc3c2nnn3C)cc1 | – | inactive: -22.8% |
| CCN1CCN(S(=O)(=O)c2ccc(Cl)c(C(=O)NC(C)(C)C)c2)CC1 | – | inactive: 0.805% |
| FC(F)(F)c1ccc(CN2CCCCCC2)cc1 | – | inactive: 8.22% |
| CCOc1ccccc1NC(=O)COc1coc(CN2CCc3ccccc32)cc1=O | inconclusive [inhibitor, single point] | – |
| CCOC(=O)NC(=O)CSc1nc(-c2ccc(C)c(C)c2)cn1-c1ccccc1 | inconclusive [inhibitor, single point] | – |
| CCC[N+]1(CC#CC(O)(c2ccccc2)C2CCCCC2)CCCCC1 (stereo not given) | – | inconclusive: -34.1% [inhibitor] |
